Data reported in the supplement of paper PMC11741623.
This is one part of the list. Interaction screen of human proteins with wild-type SARS-CoV-2 proteins by split-DHFR complementation in yeast, 1 µg/mL methotrexate. Value = fitness of the pair (three or more lineages) minus that of the viral protein without a human partner, on a scale set by negative (0) and fused positive (1) controls, mean of up to three cultures; higher = more likely to interact. Active = false discovery rate below 0.05 (one-sided t-test) in at least one culture. Nearly all pairs are not hits, and differences among them are mostly noise (correlation between cultures about 0.3); most hits were seen in one culture only. Human sequences are the Swiss-Prot entries looked up by gene name; the clone may be another isoform. NSP2 values were corrected by the authors for a growth advantage. Listed are human proteins with a hit and a random twelfth of the others.

How the values were obtained:
Test in all cases: yeast fitness gain over the viral ORF with no human partner (scaled fitness); higher = more likely to interact
[1] = biological target: SARS-CoV-2 E
Description: (§1)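 Split mouse DHFR complementation in pooled diploid yeast: human ORFeome clones carry one fragment and viral ORFs the other; barcoded lineages compete in 1 µg/mL methotrexate and fitness is read by barcode sequencing in up to three cultures.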

[2] = biological target: SARS-CoV-2 NSP1
Description: as §1

[3] = biological target: SARS-CoV-2 NSP10
Description: as §1

[4] = biological target: SARS-CoV-2 NSP12
Description: as §1

[5] = biological target: SARS-CoV-2 NSP13
Description: as §1

[6] = biological target: SARS-CoV-2 NSP16
Description: as §1

[7] = biological target: SARS-CoV-2 NSP2
Description: as §1

[8] = biological target: SARS-CoV-2 NSP5
Description: as §1

[9] = biological target: SARS-CoV-2 NSP6
Description: as §1

[10] = biological target: SARS-CoV-2 NSP7
Description: as §1

[11] = biological target: SARS-CoV-2 NSP8
Description: as §1

[12] = biological target: SARS-CoV-2 ORF10
Description: as §1

[13] = biological target: SARS-CoV-2 ORF3A
Description: as §1

[14] = biological target: SARS-CoV-2 ORF3B
Description: as §1

[15] = biological target: SARS-CoV-2 ORF6
Description: as §1

[16] = biological target: SARS-CoV-2 ORF7A
Description: as §1

[17] = biological target: SARS-CoV-2 ORF7B
Description: as §1

[18] = biological target: SARS-CoV-2 ORF8
Description: as §1

[19] = biological target: SARS-CoV-2 ORF9B
Description: as §1

[20] = biological target: SARS-CoV-2 ORF9Bwu (the 73-codon ORF)
Description: as §1

[21] = biological target: SARS-CoV-2 S
Description: as §1

[22] = biological target: SARS-CoV-2 M
Description: as §1

[23] = biological target: SARS-CoV-2 N
Description: as §1

[24] = biological target: SARS-CoV-2 NSP14
Description: as §1

[25] = biological target: SARS-CoV-2 NSP15
Description: as §1

[26] = biological target: SARS-CoV-2 NSP4
Description: as §1

[27] = biological target: SARS-CoV-2 NSP9
Description: as §1

Measured: yeast fitness gain

B1: RSAD2, Q8WXG1 (protein)
chain: MWVLTPAAFAGKLLSVFRQPLSSLWRSLVPLFCWLRATFWLLATKRRKQQLVLRGPDETKEEEEDPPLPTTPTSVNYHFTRQCNYKCGFCFHTAKTSFVLPLEEAKRGLLLLKEAGMEKINFSGGEPFLQDRGEYLGKLVRFCKVELRLPSVSIVSNGSLIRERWFQNYGEYLDILAISCDSFDEEVNVLIGRGQGKKNHVENLQKLRRWCRDYRVAFKINSVINRFNVEEDMTEQIKALNPVRWKVFQCLLIEGENCGEDALREAERFVIGDEEFERFLERHKEVSCLVPESNQKMKDSYLILDEYMRFLNCRKGRKDPSKSILDVGVEEAIKFSGFDEKMFLKRGGKYIWSKADLKLDW
inactive: [1] 0.00709 | [2] 0.0793 | [3] 0.0394 | [4] -0.0898 | [5] -0.103 | [6] -0.0702 | [7] 0.123 | [8] -0.0416 | [9] -0.01 | [10] 0.134 | [11] 0.019 | [12] -0.035 | [13] -0.0411 | [14] -0.00474 | [15] -0.0267 | [16] 0.0112 | [17] -0.0694 | [18] -0.125 | [19] 0.0217 | [20] 0.0878 | [21] -0.0307

B2: RNF7, Q9UBF6 (protein)
chain: MADVEDGEETCALASHSGSSGSKSGGDKMFSLKKWNAVAMWSWDVECDTCAICRVQVMDACLRCQAENKQEDCVVVWGECNHSFHNCCMSLWVKQNNRCPLCQQDWVVQRIGK
inactive: [1] 0.0373 | [22] -0.0735 | [23] -0.0176 | [2] 0.0137 | [3] 0.021 | [4] 0.0354 | [5] 0.0532 | [24] 0.133 | [25] -0.107 | [6] 0.039 | [7] -0.114 | [26] 0.0913 | [8] 0.0098 | [9] 0.0137 | [10] 0.0942 | [11] 0.0692 | [27] 0.0312 | [12] 0.0377 | [13] -0.197 | [14] 0.0415 | [15] -0.0148 | [16] 0.0923 | [17] -3.1e-06 | [18] 0.0206 | [19] -0.00405 | [20] -0.0362 | [21] 0.0609

B3: C6orf136, Q5SQH8 (protein)
chain: MYQPSRGAARRLGPCLRAYQARPQDQLYPGTLPFPPLWPHSTTTTSPSSPLFWSPLPPRLPTQRLPQVPPLPLPQIQALSSAWVVLPPGKGEEGPGPELHSGCLDGLRSLFEGPPCPYPGAWIPFQVPGTAHPSPATPSGDPSMEEHLSVMYERLRQELPKLFLQSHDYSLYSLDVEFINEILNIRTKGRTWYILSLTLCRFLAWNYFAHLRLEVLQLTRHPENWTLQARWRLVGLPVHLLFLRFYKRDKDEHYRTYDAYSTFYLNSSGLICRHRLDKLMPSHSPPTPVKKLLVGALVALGLSEPEPDLNLCSKP
inactive: [1] -0.0197 | [22] 0.0414 | [23] -0.0264 | [2] -0.158 | [3] -0.0426 | [4] -0.00457 | [5] 0.0603 | [25] -0.0245 | [6] 0.0236 | [7] -0.123 | [8] 0.00149 | [9] -0.00592 | [10] -0.121 | [11] 0.00431 | [27] -0.0937 | [12] 0.000914 | [13] -0.0323 | [14] -0.00863 | [15] 0.0162 | [16] -0.0267 | [17] -0.00534 | [18] -0.00115 | [19] 0.00115 | [20] -0.137 | [21] 0.103

B4: PDHA1, P08559 (protein)
chain: MRKMLAAVSRVLSGASQKPASRVLVASRNFANDATFEIKKCDLHRLEEGPPVTTVLTREDGLKYYRMMQTVRRMELKADQLYKQKIIRGFCHLCDGQEACCVGLEAGINPTDHLITAYRAHGFTFTRGLSVREILAELTGRKGGCAKGKGGSMHMYAKNFYGGNGIVGAQVPLGAGIALACKYNGKDEVCLTLYGDGAANQGQIFEAYNMAALWKLPCIFICENNRYGMGTSVERAAASTDYYKRGDFIPGLRVDGMDILCVREATRFAAAYCRSGKGPILMELQTYRYHGHSMSDPGVSYRTREEIQEVRSKSDPIMLLKDRMVNSNLASVEELKEIDVEVRKEIEDAAQFATADPEPPLEELGYHIYSSDPPFEVRGANQWIKFKSVS
inactive: [1] 0.0204 | [22] -0.00527 | [23] -0.0462 | [3] 0.0725 | [4] 0.00732 | [5] -0.0202 | [25] 0.0343 | [6] 0.0124 | [7] -0.101 | [8] -0.015 | [9] 0.00418 | [10] 0.0694 | [11] -0.249 | [27] -0.0481 | [12] 0.00746 | [13] -0.00571 | [14] 0.0327 | [15] 0.0391 | [16] 0.0408 | [17] -0.0334 | [18] 0.0314 | [19] -0.0459 | [20] 0.0207 | [21] -0.0631

B5: ASTE1, Q2TB18 (protein)
chain: MGIRGLMSFVEDHSNEFFTDLKLRDTKIVIDGYALFHRLCFSSNLDLRYGGDYDSFADVVQKFFESLFACNICPYVVLDGGCDISDKKLTTLKDRAREKIQMAHSLSVGGSGYVCPLLIREVFIQVLIKLRVCFVQCFSEADRDIMTLANHWNCPVLSSDSDFCIFDLKTGFCPLNSFQWRNMNTIKGTQNYIPAKCFSLDAFCHHFSNMNKALLPLFAVLCGNDHVNLPIMETFLSKARLPLGATSSKGRRHHRILGLLNWLSHFANPTEALDNVLKYLPKKDRENVKELLCCSMEEYQQSQVKLQDFFQCGTYVCPDALNLGLPEWVLVALAKGQLSPFISDALVLRRTILPTQVENMQQPNAHRISQPIRQIIYGLLLNASPHLDKTSWNALPPQPLAFSEVERINKNIRTSIIDAVELAKDHSDLSRLTELSLRRRQMLLLETLKVKQTILEPIPTSLKLPIAVSCYWLQHTETKAKLHHLQSLLLTMLVGPLIAIINSPGKEELQEDGAKMLYAEFQRVKAQTRLGTRLDLDTAHIFCQWQSCLQMGMYLNQLLSTPLPEPDLTRLYSGSLVHGLCQQLLASTSVESLLSICPEAKQLYEYLFNATRSYAPAEIFLPKGRSNSKKKRQKKQNTSCSKNRGRTTAHTKCWYEGNNRFGLLMVENLEEHSEASNIE
inactive: [1] 0.0397 | [22] 0.0996 | [23] -0.0472 | [2] -0.0334 | [3] 0.0245 | [4] 0.00067 | [5] 0.0517 | [24] 0.0607 | [25] 0.0575 | [6] -0.0176 | [7] -0.0951 | [26] -0.259 | [8] 0.0108 | [9] -0.0369 | [10] -0.046 | [11] -0.00586 | [12] 0.0131 | [13] 0.00613 | [14] 0.0141 | [15] -0.0229 | [16] -0.0267 | [17] -0.013 | [18] 0.00581 | [19] 0.0547 | [21] 0.0205

B6: ZNF843, Q8N446 (protein)
chain: MRSLPFALTVESVSARAPTCCSTGRFTQGRQPCKCKACGRGFTQSASLLQHWRVHSDWRETLSLSPVRQDLLWPLQPHQAPASPLGRSHSSAGVRQGFSGQLCCWLTKEHTLAEALRLSPVPAGFWGPVEADRPPANSHRRVCPFCCCSCGDSVNEKTSLSQRVLPHPGEKTCRGGSVESVSLAPSSVAPDSTSGLRPCGSPGSFLQHLPPSTLLPRPPFLYPGPPLSLQPLVPSGLPAVPAVPLGGLEVAQVPPATQPAAQQEGAMGPRSCASAGRDSREAVQAPGYPEPARKASQHRAAGPLGEARARLQRQCRAPPPPSNPHWRGALPVFPVWKASSRRSNLARH
inactive: [1] -0.0191 | [22] 0.106 | [23] 0.192 | [2] 0.0739 | [3] -0.0105 | [4] 0.0538 | [5] 0.00731 | [24] -0.00991 | [6] 0.0288 | [7] -0.0975 | [8] 0.0525 | [9] 0.109 | [10] 0.0454 | [11] -0.0644 | [12] -0.0676 | [14] -0.0047 | [15] 0.0198 | [17] -0.0614 | [18] -0.0312 | [19] -0.0835 | [20] -0.125 | [21] -0.0913

B7: RPA4, Q13156 (protein)
chain: MSKSGFGSYGSISAADGASGGSDQLCERDATPAIKTQRPKVRIQDVVPCNVNQLLSSTVFDPVFKVRGIIVSQVSIVGVIRGAEKASNHICYKIDDMTAKPIEARQWFGREKVKQVTPLSVGVYVKVFGILKCPTGTKSLEVLKIHVLEDMNEFTVHILETVNAHMMLDKARRDTTVESVPVSPSEVNDAGDNDESHRNFIQDEVLRLIHECPHQEGKSIHELRAQLCDLSVKAIKEAIDYLTVEGHIYPTVDREHFKSAD
inactive: [1] 0.0302 | [22] -0.0141 | [23] -0.0293 | [2] 0.0765 | [3] 0.0583 | [4] 0.0158 | [5] 0.0237 | [24] -0.0428 | [25] 0.101 | [6] 0.057 | [26] -0.0459 | [8] -0.0099 | [9] -0.022 | [10] 0.073 | [11] 0.0221 | [27] 0.0418 | [12] 0.0421 | [13] 0.0176 | [14] 0.0314 | [15] 0.0338 | [16] 0.0266 | [17] 3.5e-05 | [18] -0.146 | [19] -0.0178 | [20] 0.0146 | [21] 0.0635
active: [7] 0.356

B8: CASC4, Q6P4E1 (protein)
chain: MVGFGANRRAGRLPSLVLVVLLVVIVVLAFNYWSISSRHVLLQEEVAELQGQVQRTEVARGRLEKRNSDLLLLVDTHKKQIDQKEADYGRLSSRLQAREGLGKRCEDDKVKLQNNISYQMADIHHLKEQLAELRQEFLRQEDQLQDYRKNNTYLVKRLEYESFQCGQQMKELRAQHEENIKKLADQFLEEQKQETQKIQSNDGKELDINNQVVPKNIPKVAENVADKNEEPSSNHIPHGKEQIKRGGDAGMPGIEENDLAKVDDLPPALRKPPISVSQHESHQAISHLPTGQPLSPNMPPDSHINHNGNPGTSKQNPSSPLQRLIPGSNLDSEPRIQTDILKQATKDRVSDFHKLKQSRFFDENESPVDPQHGSKLADYNGDDGNVGEYEADKQAELAYNEEEDGDGGEEDVQDDEERELQMDPADYGKQHFNDVL
inactive: [1] 0.0399 | [23] 0.00512 | [24] 0.114
